The whole screen tested about 310,000 compounds, of which about 18,000 (5.8%) were called active. Inconclusive means that the source gave no clear call. Such entries were picked first, then a sample of the others. Calls come from the whole dose curve; as a rule, active = well fitted inhibition curve with a large enough effect; inconclusive = small, poorly fitted or top-dose-only effect, or another doubt; inactive = no such curve, though single readings can be large or run the other way. Potencies of inconclusive entries are left out as doubtful fits.
Test: Primary qHTS for delayed death inhibitors of the malarial parasite plastid, 48 hour incubation
Conditions: P. falciparum luciferase growth in erythrocytes; series mostly up to 28.7 µM
In short: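 In quantitative HTS format, infected erythrocytes bearing luciferase-reporter parasites were treated for a single generation at 37 C. Luminescence after adding detection reagent served as the growth measure.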
Potency is the fitted concentration of half-maximal effect; tags give direction and shape of the fitted curve.

| SMILES | Potency |
| --- | --- |
| CCN(CC)S(=O)(=O)c1ccc(C(=O)Nc2ncn(Cc3ccccc3)n2)cc1 | inconclusive [inhibitor, partial curve, poor fit] |
| Cc1cccn2c(=O)c3cc(C(=O)NCCc4ccccc4)c(=N)n(CC4CCCO4)c3nc12 (centres undefined) | active: 2.33 µM |
| CCOc1cc(CNCCc2ccc(S(N)(=O)=O)cc2)ccc1OCc1ccc(Cl)cc1 | active: 9.28 µM |
| Cc1nn(C)c(C(=O)N/N=C/c2cccc3ccccc23)c1Cl | inactive |
| COC(=O)c1ccc(NC(=O)c2ccc3c(c2)NC(=O)C2CCCN32)cc1 (centres undefined) | active: 8.28 µM |
| CN(C)c1cc(Cl)c2nonc2c1N | inconclusive [inhibitor, full curve, poor fit] |
| COc1ccc(-c2nc(CS(=O)CC(=O)NCc3ccccc3)c(C)o2)cc1OC (centres undefined) | inconclusive [inhibitor, single point] |
| CC(C)n1nccc1N(Cc1ccc(C#N)cc1)S(=O)(=O)c1ccccc1 | inconclusive [inhibitor, partial curve, poor fit] |
| C=CCn1c(SCC(=O)/C(C#N)=C(\C)N)nc2sc(C)c(C)c2c1=O | inconclusive [inhibitor, partial curve, poor fit] |
| CC1(CC(=O)N/N=C/c2ccc(-c3ccc(C(=O)O)cc3)o2)OCCO1 | inactive |
| CCc1nnc(NC(=O)c2cccc(C(=O)Nc3nnc(CC)s3)n2)s1 | inactive |
| O=C(CN1CCCCCC1)Nc1ccccc1 | inactive |
| COc1ccccc1C(CNC(=O)c1ccc(C)c(S(=O)(=O)N2CCCCC2)c1)N1CCCC1 (centres undefined) | inconclusive [inhibitor, single point] |
| Cc1ccc(S(=O)(=O)N2CCC(=O)N(C(COCc3cccc(C)c3)Cc3ccccc3)CC2)cc1 (centres undefined) | inconclusive [inhibitor, partial curve] |
| O=C(Nc1nncs1)C1COc2ccccc2O1 (centres undefined) | inactive |
| Cc1ccc(N(Cc2cc(=O)[nH]c3ccccc23)C(=O)CCl)c(C)c1 | active: 9.28 µM |
| Cc1ccc(NC(=O)COc2coc(CN3CCN(Cc4ccccc4)CC3)cc2=O)cc1 | inconclusive [inhibitor, partial curve] |
| COc1ccc(-c2cc([C@H]3[C@H]4C=CC[C@@H](C)[C@@H]4C(=O)N3Cc3ccccc3)ccc2F)cc1 | inconclusive [inhibitor, single point] |
| CC1CCCN(C(=O)c2ccc(OC3CCN(CCc4ccccc4)CC3)cc2)C1 (centres undefined) | inconclusive [inhibitor, partial curve, poor fit] |

— PubChem BioAssay AID504832 (National Center for Advancing Translational Sciences (NCATS), 2011)
